# Data from the supplement of paper PMC10338343.
# ± gives the standard deviation. Only a part is listed here, and it is no random draw.
# Test system: MIWI (PIWIL1) piRISC loaded with piRNA #1 (30 nt)
# Test: pre-steady-state target cleavage rate (min^-1); MIWI and MILI are mouse PIWI proteins and EfPiwi is from a freshwater sponge; tags in brackets are library labels; higher = faster piRNA-guided slicing of the target
# Details: guide: piRNA #1 5'p-UGAGGUAGUAGGUUGUAUAGUAUCCAGAGG; auxiliary factor: 500 nM mouse GTSF1
# Procedure, shortened: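 In Cleave-'n-Seq, a transcribed, DNA-blocked target RNA library (0.1 nM) was combined with 1 nM active affinity-purified piRISC bearing one synthetic guide, with or without 500 nM GTSF1 partner protein. Reactions ran in HEPES–potassium acetate buffer at 33 °C for 0–8 or 0–960 min. Uncleaved targets were sequenced and normalised to depth and to weakly complementary targets, three trials were pooled, and k3 was capped at 0.0001 min^-1. The pre-steady-state cleavage rate was obtained by fitting a burst-and-steady-state model.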
row,Sequence,pre-steady-state target cleavage rate
1,GGAGACCUAACUAUACUACCUACUACGUCA,0.135 ± 0.037
2,GGAGACCUUACUAUACAAGCAACUACCUCA,0.0142 ± 0.0025
3,GGAGACCUAUGUAUACAACCUACGUACCUCA,0.0283 ± 0.0054
4,GGAGUGGAUACUAUACAACCUACUACCCA,0.238 ± 0.052
5,GGACUCGGAUACUAUACAACCUACUACCUCA,1.97 ± 0.13
6,GGAGACGAUACUACUACAACCUACUACCUCA,1.53 ± 0.11
7,CCUCUGGAUACUAUCCAACCUACUACCUCA,2.1 ± 0.14
8,GGAGAGGAAACUAAACAACCUACUACCUCA,1.24 ± 0.1
9,GGAGACCUAUGAUUACAACCUCCUACCUCA,0.00268 ± 0.0026
10,GGUCUGGUUACUAUACAACCUAGUACCUCA,0.475 ± 0.046
11,GGUCUGGAUACUAUACAAACCUACUACCUCA,0.00621 ± 0.0028
12,GGAGACCUAUGAUAUGUUCCUACUACCCUCA,< 0.0001
13,GGACUGGAUUCUAUACAACCUACUUCCUCA,0.0166 ± 0.0046
14,GGAGAGGAUACUAUCAACCUACUACCUCA,1.31 ± 0.085
15,GGAGACCAACUAUACAACCUACUACCUCA,1.65 ± 0.13
16,GGAGACCAUACUAUACAACCAAGUACCUCA,0.0146 ± 0.0021
17,GGUCUGGAUACUAUACAACCAUCUACCUCA,0.0294 ± 0.0057
18,GGAGUGGAUACUAUUCAUCCUACUACCUCA,1.04 ± 0.059
19,GGAGACCUUACUAUACGAACCUACUACCUCA,< 0.0001
20,GGAGAGGAUACUAUAAAACCUACUACCUCA,1.26 ± 0.057

row,Sequence,pre-steady-state target cleavage rate
1,GGAGUGGAUAGUAUACAACCUAGUACCUCA,0.385 ± 0.034
2,GGAGACCUAUGAUAUGUUCCUACUACCACA,< 0.0001
3,GGAGUGGAUACUAUACAACGUACUACCACA,0.215 ± 0.037
4,GGUCUCGAUAGUAUACAACCUACUACCUCA,1.67 ± 0.11
5,GGACUGGAUACUUAACAACCUACUACCUCA,1.22 ± 0.13
6,CCUCUGGAUACUAUACAACCUUCAACCUCA,0.308 ± 0.028
7,GGAGACCUAUGAUAUGUUGCUACUACCUA,< 0.0001
8,GGACUCGAUAGUAUACAACCUACUACCUCA,1.45 ± 0.13
9,GGAGACCUAACUAUCAACCUACUACCUCA,0.0875 ± 0.012
10,GGAGACCUAACUAUACAACCUACUACUCUCA,1.09 ± 0.09
11,GGACUGGAUUCUAUACAACCUACUACGUCA,0.717 ± 0.071
12,GGAGACCUAGCUAUACAACCUACUACCUCA,1.18 ± 0.17
13,GGACUGGAAUACUAUACAACCUACUACCUCA,1.62 ± 0.12
14,GGUCAGGAUACUAUACAACCUACAACCUCA,0.515 ± 0.04
15,GGUCUGGAUACAAUACAAGCUACUACCUCA,0.775 ± 0.036
16,GGUCCGGAUACUAUACAACCUACUACCUCA,1.76 ± 0.11
17,GGAGACCUAACUAUGACAACCUACUACCUCA,0.177 ± 0.019
18,GGUCUGGAUACUAUACAACCUACUACUCUCA,1.2 ± 0.1
19,GGAGACCUUAGAAUACAACCUACUACCUCA,0.00641 ± 0.0034
20,GGAGACCUUGACUAUACAACCUACUACCUCA,1.48 ± 0.14
